# Experimental data: the supplement of paper PMC3334620
# The full ranking holds about 33,000 sequences; the median of “E-score (-0.5 to 0.5)” is about -0.054, and the highest 2% start at about 0.39. This is one part of the list.
# Molecular target: Ylr278c (UniProt Q05854)
# Assay: PBM E-score (8-mer binding enrichment) (E-score (-0.5 to 0.5)); higher = stronger / more preferred TF binding; most listed sequences are background and not binding sites
# Conditions: protein concentration: 200 nM; construct: GST-DNA-binding domain
# Outline: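 Universal all-10-mer Agilent arrays, fresh or stripped once, were converted to double-stranded form by primer extension. GST-tagged yeast transcription factors from PURExpress in vitro transcription/translation, full-length or DNA-binding domain only, were applied at about 100-200 nM and detected with fluorescent anti-GST. After masliner normalisation, the Universal PBM Analysis Suite scored each ungapped eight-base word together with its reverse complement by E-score.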
row,Sequence,PBM E-score
1,GAGTAAGC,-0.0825
2,CTGTCGCA,-0.00586
3,ATAACGGC,0.158
4,ATTGCTTA,-0.0717
5,ACCAGAAT,-0.187
6,CATAAACG,-0.0617
7,ACACATCG,-0.0839
8,GGCGTCAA,-0.0152
9,ATTTTGTG,0.0609
10,ACCCGCAT,0.161
11,CCACAGCG,-0.0839
12,GCCCGCCA,0.196
13,CAGCTTAG,-0.202
14,ATTTGCAC,-0.228
15,CGCCCCAG,-0.018
16,CCTTGATC,-0.158
17,ACATGAAG,-0.0787
18,CACAATGG,-0.0664
19,CATCATTA,0.0546
20,TTATATAA,0.195
21,GAGCATGC,-0.0798
22,AGCGGCGG,0.353
23,AGCATATA,0.0738
24,GGGTCAGA,-0.167
25,CTCTACAA,-0.214

row,Sequence,PBM E-score
1,AGATACAA,-0.0944
2,CCAACTGC,0.0912
3,ACAGCGGA,0.275
4,AAGCGGGA,0.219
5,CACCGAGA,0.034
6,AACCGCAC,-0.0338
7,GTTGATTA,-0.0327
8,CAGCACAA,-0.0202
9,ACGGGGCT,0.201
10,CTAATCAG,-0.0685
11,CCGCCATC,0.167
12,TATCTACA,-0.119
13,GAGGTAAC,0.081
14,ACAAGAAC,0.0809
15,CGCGGCCA,0.123
16,GTAGCTTA,-0.159
17,CATCCTCC,0.201
18,AGAACTTG,-0.158
19,AATGGCTG,-0.163
20,CAACCCTA,-0.215
21,ATAGTCGC,-0.0527
22,ATGTGAGA,-0.196
23,CGTGGCTC,-0.238
24,ATTACTCG,-0.025
25,ATACTGTG,-0.194

row,Sequence,PBM E-score
1,ATCATTAC,-0.0708
2,CCGCATTC,0.215
3,ACCACTCA,-0.259
4,CCTCGCCC,-0.0519
5,AAGCCAGC,-0.207
6,CTTCTATC,-0.00777
7,CCGGCCTA,0.287
8,ATCGTCAG,-0.24
9,CTACTGCA,-0.384
10,ATCACTGA,-0.195
11,GAAATATA,0.189
12,CAAGAGAG,-0.172
13,CGCCTGTC,-0.0687
14,CAGTCAGG,-0.187
15,TAGATACA,-0.295
16,AAGGCGTC,-0.192
17,AACCACAG,-0.188
18,GTCGAGGA,-0.264
19,ACCATGCC,0.072
20,CAGGCCGG,0.176
21,ACGAAATA,-0.0959
22,GCCGTACC,0.213
23,CAGTCCGA,0.402
24,CCGTGGAG,0.23
25,CCTGCCCA,-0.275

row,Sequence,PBM E-score
1,CCCTCATC,-0.199
2,CATGCGAA,-0.00394
3,CTGTAAAG,-0.00462
4,CCTCGCAG,-0.0589
5,ACGCCAAT,-0.107
6,ATTGTGAG,-0.0852
7,AATAGACG,0.0829
8,AACTGCCA,-0.249
9,AGCGCATA,-0.0726
10,CGCTCAGA,-0.0763
11,CCTTCGGA,0.424
12,AGCATACG,0.0274
13,ATCCCACG,-0.14
14,CTTAGGTC,-0.00439
15,CCTATAGC,-0.344
16,ACGTCATA,-0.112
17,CTAATATC,0.0812
18,GCCAGATA,-0.141
19,ACCATCAA,-0.175
20,CCGTCAGC,0.128
21,CTCACTAA,-0.0701
22,CGACTTTC,0.158
23,GCACAGTA,-0.245
24,CATGGGAC,-0.146
25,GCAGGGCC,-0.0627

row,Sequence,PBM E-score
1,AACGGTCA,0.103
2,AGTCCTTG,-0.206
3,GATGGCAA,0.00399
4,GGACGGAC,0.359
5,TAAAGCTA,-0.357
6,CGCCGCTA,0.328
7,AGTGCCCA,-0.038
8,CGCAAGAA,0.0704
9,CCGAGACG,0.134
10,AACTGCCG,0.212
11,GCAAGAAA,-0.00183
12,ATCGTATC,-0.115
13,AATACCGG,0.416
14,TTAATCAA,-0.0824
15,CCGAGACC,0.31
16,GTACTATA,0.0927
17,CAGGAAAC,-0.137
18,AACTTACG,-0.0452
19,AAGTTGAC,-0.179
20,CATCACCC,0.123
21,GGAGCAAC,0.227
22,ACAGCGCT,-0.0073
23,CAAAAGCA,-0.161
24,GTGAAAAC,0.0583
25,AGCGAAGC,-0.0178

row,Sequence,PBM E-score
1,GGGAAACC,0.169
2,AAATCCGG,0.474
3,GAACCGAA,0.0439
4,AGGTAAAT,-0.114
5,CGGGGCTC,0.226
6,GGTGATAA,0.0744
7,CTAAACAA,-0.108
8,ATCCCCCG,0.3
9,ACCAACCT,-0.119
10,CGAGGGGA,0.0236
11,CGTTAATC,0.0727
12,GCTATTAC,-0.135
13,GGGAATAC,0.176
14,GGATGCCA,-0.277
15,GGTCAGTA,0.0032
16,ACAGTCTA,-0.204
17,CCACTTGA,0.043
18,TAGCACTA,-0.23
19,TCATAAAA,-0.0551
20,CCGCGGGC,0.367
21,CTAAATGA,-0.114
22,AAGCCCTC,-0.184
23,AAAGTGGT,-0.15
24,ACACATAC,-0.102
25,ATCAAGCC,-0.148

row,Sequence,PBM E-score
1,ATCTCTGA,-0.187
2,CCTAACCG,-0.0385
3,CAAAACGG,-0.0308
4,GCTCTTCC,0.0931
5,AAACCGAC,0.0773
6,ACTTGAAG,-0.253
7,ATTCATCG,-0.0157
8,CGTGCCGC,0.12
9,ACACTGAG,-0.245
10,CAGAAACA,-0.241
11,GCAAACTA,-0.206
12,AATCCGAT,0.421
13,GGACTGAA,-0.00012
14,CCAGTGTC,-0.163
15,AGCGGTTC,-0.106
16,ACACCTAA,-0.13
17,ACGGAATG,0.183
18,ACAGATGA,-0.125
19,AACACCCT,-0.114
20,ACGGGGAA,0.294
21,AAACCAGA,-0.219
22,AGCGATGC,-0.164
